Measurements from the supplement of paper PMC11417369.
± gives the standard deviation of the averaged measurements. The list shows a part of the results.

The sequences below were run on PfAP2-I AP2 domain 3 (GST-tagged) (assay: gcPBM binding intensity (ln(normalized median fluorescence intensity)); higher = stronger DNA binding).
In short: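 Binding intensity is defined as the maximum Masliner-normalised natural-log median intensity across replicate spots for either probe orientation. It was measured on an Agilent 4 × 180k array of primer-extended double-stranded 36-bp intergenic genomic probes and negative controls, to which GST-tagged P. falciparum DNA-binding domains made in E. coli were applied for 1 h in 1× PBS with 1% milk, 0.2 mg/ml BSA, 0.5% salmon testes DNA and 0.03% Triton X-100. Detection was by Alexa488 anti-GST antibody and scanning at 488 nm.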

| Sequence | gcPBM binding intensity (ln) |
| --- | --- |
| ATATTTTTATTTAAACGTACATACACGTTGAAAAGA [XGTACX_site4567] | 7.85 ± 0.33 |
| TTTTCAATTAATAATACACACATGTATATATCATTA [CACACA_site7539] | 7.84 ± 0.49 |
| TAATGCATTATTAGAATACACACCATACGCATATTT [CACACA_site289] | 8.12 ± 0.52 |
| TGATGTTGTAACAAAAGTACACACACATTTCTATAA [XGTACX_site5837] | 7.86 ± 0.15 |
| TTTTTCTTTTGATGTTGTACATATATATTATATATA [XGTACX_site2754] | 7.99 ± 0.47 |
| TTTTTCTTAAAAAATTGTACACATATATATATATAT [XGTACX_site542] | 9.65 ± 0.22 |
| ATTAAGTTAAACATTACACACTATGTATTATTTATG [CACACA_site973] | 7.62 ± 0.73 |
| TTTTTTTTTTTTAATACACACATATTTATATTTATT [CACACA_site7802] | 8.15 ± 0.6 |
| CTAAGCTAAGTAAGCTGTACTTCACCTTTATACAGT [XGTACX_site3087] | 7.52 ± 0.69 |
| CTATTTTTATATTATTGTACGTTGTTATTATATATA [XGTACX_site1469] | 8.08 ± 0.51 |
| ATATAGAACACCTGTGCATGCAAGTGCTAAAAAATT [TGCATGCA_site213] | 9.93 ± 0.16 |
| TAATATTATTTAGAGTGTACTCATAAATCAACAAAA [XGTACX_site5269] | 7.76 ± 0.4 |
| TTTATATTTATATATACACACATATACATCCTATTT [CACACA_site3079] | 7.67 ± 0.52 |
| ATATATATGGAAACAGTGCAATACATATATATATAT | 10.74 ± 0.071 |
| TTTTTTTTTTTTTGCACACACATAATAGGTACAAAT [CACACA_site3577] | 9.63 ± 0.11 |
| CATATTTACTATCACACACACGATATATATAAATAT [CACACA_site1241] | 8.01 ± 0.47 |
| TTTTTTTTTTTTTTCTCACACATTTAATGATAATAT [CACACA_site5513] | 8.02 ± 0.59 |
| TTATACTAAATGAACACACACACATCTATATTTATA [CACACA_site6199] | 7.77 ± 0.44 |
| AATTAAAATAATAATACACACATCATAGAAAAAGAC [CACACA_site292] | 8.79 ± 0.23 |

| Sequence | gcPBM binding intensity (ln) |
| --- | --- |
| AAATTAGACTATAATACACACATAAAAAAAAAATCA [CACACA_site7672] | 7.79 ± 0.4 |
| AATTGGGTAGGACATGCATGAGAAATTAATATTGCA [TGCATGCA_site356] | 8.1 ± 0.73 |
| ATATATATATATATATGTACTAACCTTTTAAAATAT [XGTACX_site6488] | 9.27 ± 0.33 |
| ATGTCAAACATTTGCACACAAAAAAATAAAAATTAA [CACACA_site692] | 9.03 ± 0.29 |
| TATTACATTGTTGAATGTACTCATTTAAAATTTATA [XGTACX_site7987] | 7.6 ± 0.21 |
| AATCAAAGCCCACATACACACACATATATATATATA [CACACA_site7987] | 9.38 ± 0.4 |
| ATAAAATGAACCTTTTGTACATATATATATATATAT [XGTACX_site4610] | 9.54 ± 0.41 |
| ATATTATATATATATAAACACACAAATATTTTTATA [CACACA_site8486] | 7.76 ± 0.28 |
| AACATCTCATATCGTACTACACTCATATATATATAT [XGTACX_site170] | 9.29 ± 0.52 |
| TTTAATAATAATAAAAGTACACAAATATAAAGGAAA [XGTACX_site5203] | 8.02 ± 0.51 |
| TGAATATTTCTATATACACACATATATATATATATA [CACACA_site3451] | 9.46 ± 0.5 |
| TCACGTATGTATATTACACACATACATATTATTCAC [CACACA_site4276] | 7.88 ± 0.73 |
| ATATATATAAAATGTTGTACATATATATAAATAATA [XGTACX_site1661] | 7.96 ± 0.36 |
| CTAAAATACAGACACACACACACATATATATATATA [CACACA_site4150] | 9.32 ± 0.45 |
| GGGTTTTTAAAATGTAGTACATATGTAAACATCAAA [XGTACX_site1262] | 8.34 ± 0.13 |
| TTAAAATAGGGCGAAGAAATTTTCTGTAAACATTTG [CACACA_negctrl_site1010] | 7.51 ± 0.61 |
| ATATGCTTATATTATATATATAAGTCTATATATTTT [XGTACX_negctrl_site349] | 7.36 ± 0.41 |
| CACATACAGACATACACACATACACATATACGCATA [CACACA_site1745] | 8.14 ± 0.4 |
| ATATAATATGGTATTACACACTGTTAAAAGTATGGC [CACACA_site5190] | 7.77 ± 0.62 |

| Sequence | gcPBM binding intensity (ln) |
| --- | --- |
| ATATATATTTTTATAACACACAATGAAGTACATTAC [CACACA_site8270] | 8.12 ± 0.33 |
| TCTGTATATTTCGCGCGTACGAACAAATTGATAATT [XGTACX_site7965] | 8.06 ± 0.4 |
| AAACAATAAAAGATTACACACATATATAGCATCTAT [CACACA_site5012] | 7.59 ± 0.54 |
| TTTCATTTGTCGTTATGTACTTATTAAATATTATTA [XGTACX_site7709] | 8.05 ± 0.56 |
| TAAAGTAAAGACATACTTATTTTCCATCCACTTCTT [CACACA_negctrl_site1288] | 7.84 ± 0.57 |
| AAAAATTTATTTAAAAGTACATAAAATAAAGGTGGA [XGTACX_site7591] | 8.06 ± 0.39 |
| ACTTTAGAAATAGAGGTGCTATTTTTATTACCACAC | 9.81 ± 0.11 |
| ATTTTAGAATTTAATACACACAAAAAAAAAAAATTA [CACACA_site3704] | 7.68 ± 0.38 |
| TATTACATTATATAAACATGCAAAACTATATATTAT [TGCATGCA_site601] | 7.86 ± 0.66 |
| AAAATAATAAAAAGGGGTACAAAGAAACAAATATAA [XGTACX_site296] | 8.29 ± 0.64 |
| AAGGAAAAGTAAAGAAGTACTGTACCGCCAAAAAAA [XGTACX_site2607] | 8.08 ± 0.62 |
| TTGATGTTGGTAGGATGTACGGTACCGGTAGTATTT [XGTACX_site6642] | 8.04 ± 0.74 |
| AATTTATTTTTTTGATGTACATACAATTTATCACAA [XGTACX_site5936] | 8.01 ± 0.54 |
| TATGTGCATATAAACTCACACATTGTATATTACATG [CACACA_site6106] | 10.3 ± 0.24 |
| ATATATGTAGATATATGTACATATATAGGTAGATAT [XGTACX_site7589] | 8.55 ± 0.54 |
| TTTATTAAAATATTCTCACACACCAAAATATGTATG [CACACA_site932] | 7.47 ± 0.57 |
| ATAAAATAACACAACGTTGACAAATTTGGATGACTC [XGTACX_negctrl_site324] | 7.86 ± 0.72 |
| AAAAAAAAAAAAAAAACACACATAAAAATATAATAA [CACACA_site3855] | 8.74 ± 0.5 |
| ATTATATATAATATAGTGCATGTAAAAAATAAAACA | 9.59 ± 0.057 |
